The full ranking holds about 33,000 sequences; the median of “E-score (-0.5 to 0.5)” is about -0.032, and the highest 2% start at about 0.36. This is one part of the list.
biological target: T1, Sko1 (UniProt Q02100); experiment: PBM E-score (8-mer binding enrichment) (E-score (-0.5 to 0.5)); higher = stronger / more preferred TF binding; most listed sequences are background and not binding sites; settings: protein concentration: 200 nM; construct: GST-full length
T1 sequence: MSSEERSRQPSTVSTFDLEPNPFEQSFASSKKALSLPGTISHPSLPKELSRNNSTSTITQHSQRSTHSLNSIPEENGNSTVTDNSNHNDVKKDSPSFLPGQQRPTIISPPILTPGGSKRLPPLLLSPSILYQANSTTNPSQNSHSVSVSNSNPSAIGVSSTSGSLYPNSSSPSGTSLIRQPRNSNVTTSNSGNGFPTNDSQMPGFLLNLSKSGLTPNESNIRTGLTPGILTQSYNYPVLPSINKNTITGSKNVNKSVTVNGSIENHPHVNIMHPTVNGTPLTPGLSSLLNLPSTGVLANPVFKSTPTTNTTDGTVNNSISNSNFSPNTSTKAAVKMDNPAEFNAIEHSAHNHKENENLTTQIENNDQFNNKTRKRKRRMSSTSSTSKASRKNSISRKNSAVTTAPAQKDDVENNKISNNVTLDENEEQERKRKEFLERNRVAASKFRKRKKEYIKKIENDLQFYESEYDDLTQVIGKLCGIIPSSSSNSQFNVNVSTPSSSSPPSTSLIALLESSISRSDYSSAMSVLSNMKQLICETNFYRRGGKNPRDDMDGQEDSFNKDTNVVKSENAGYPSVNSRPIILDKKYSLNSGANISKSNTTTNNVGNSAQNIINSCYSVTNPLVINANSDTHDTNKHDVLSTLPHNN
How it was run: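 Bound GST-tagged yeast transcription factors, applied at about 100-200 nM to double-stranded universal all-10-mer Agilent arrays, were detected with fluorescent anti-GST. Scans were normalised with masliner. A modified Wilcoxon-Mann-Whitney statistic, the E-score, was assigned to each ungapped eight-base word pooled with its reverse complement by the Universal PBM Analysis Suite.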

Sequence | PBM E-score
AGTTTAGG | -0.025
AATGCAGA | 0.122
CCCCTCGC | -0.239
CGTTCGAA | 0.12
GCTGATAA | 0.117
GGACTACA | -0.195
CGGAAAAC | -0.0324
CATAGATC | -0.0516
TGGTGTAA | 0.086
AAACTACG | 0.344
AACTAAAA | 0.159
CACTCCCA | -0.176
CGCATGAG | -0.103
AACGTATA | 0.406
ATTCGTCG | 0.22
ATTACAAT | 0.229
ACATCCGT | -0.00561
ATGGCTGG | -0.185
CCGGGGTC | -0.333
ATCAAGGC | -0.09
ACGCAACA | 0.388
GATCACCA | -0.171
CTCAGCAC | -0.0584
CACCAGCA | 0.0552
AAACGGCC | -0.196

Sequence | PBM E-score
CCTGGAAA | -0.0508
CGGGTTGA | -0.237
TACGCGTA | 0.387
GTGGAGAA | -0.102
CCTTCGCA | -0.126
GCTACCTA | 0.147
ACTACGAA | 0.289
GTTCCCTA | -0.141
GTGATGCA | 0.249
GGGGGAGA | -0.289
GCTAGGCA | -0.26
ACACCTTC | -0.04
AGGACGGC | -0.139
AGCCGCGG | -0.17
ATTCGACA | -0.09
AACCCTTA | 0.115
TACAGCAA | 0.0691
AACTGAAC | -0.208
CGGGTTCC | -0.31
AGGAAGGA | -0.175
CATAAAAC | 0.0827
CCAGCTGA | -0.118
ATATGACA | 0.243
CATGGCGA | -0.152
ATGTTGGG | -0.168

Sequence | PBM E-score
CTACCACA | -0.105
CCGCCTGC | -0.185
CCACTCAA | 0.0742
GTCGCCAA | -0.12
GAATTTAA | 0.123
TCACAACA | 0.251
CACCAACA | -0.101
AAGAACTA | 0.0187
CATCTGTA | 0.116
AGTGGCTC | -0.181
AGGTACAG | -0.145
TAGAAACA | 0.0497
GATATTGA | 0.143
TCGAGTCA | -0.00474
CGTCTGGC | -0.0418
CTACGCAG | 0.274
GCTGTAAA | -0.0317
ATCGCAGC | -0.188
AGGCTCCG | -0.291
CCGGCAGC | -0.26
ATACACAA | 0.179
AAACGGGG | -0.174
GACCAGAC | -0.166
CGGTCCCC | -0.368
ACGCGGAG | -0.112

Sequence | PBM E-score
AGGAGATA | 0.0168
GGGCCGTA | -0.19
CGTCTTAG | 0.0611
ATAGCAGG | -0.126
CGCTGTAG | -0.145
AACTCAGG | -0.0444
CGCCTTGC | -0.171
AGGATTTG | 0.061
ACCCAGAA | -0.0519
AGGACTAC | -0.228
AAATTAGG | 0.212
ATCCCTGC | -0.276
AATAATTC | 0.212
ATAATGAA | 0.207
CAGGCACC | -0.219
AAGAGTCC | -0.252
ATTTAGGA | 0.0108
GCCTCTGA | -0.0424
CTCGTCAG | 0.176
ACATGCCA | -0.0715
CCGCTCTC | -0.259
CCGTAACG | -0.103
TCAGGAGA | -0.103
GGAGAGCC | -0.241
AACGTGTC | 0.192

Sequence | PBM E-score
GAGGGAAC | -0.291
GAGGTAAA | 0.161
ACGGTATA | -0.00848
ACGTTGGG | 0.193
ATCCTGCC | -0.221
GCTTACAC | -0.137
CCGCTCAC | -0.0552
GGAACAAC | -0.125
CCGTTTGA | -0.191
CCGTCTGA | -0.224
ACTTAAGA | 0.129
ACAATAGC | -0.0393
GTGCGGCA | 0.0044
GAAACATA | 0.134
AGGATGTC | -0.0225
CTGGCGGA | -0.21
CGATGACA | 0.283
CTAGCCCA | -0.191
ATCAGCTA | 0.104
AGTTCAGA | -0.0766
AGGACCTG | -0.38
CGCTCACA | 0.0942
ATAGACGA | 0.114
CCATGAAG | -0.0295
GCGCACTA | 0.0239

Sequence | PBM E-score
GCGCGCCC | -0.239
CTACAACA | -0.00923
ACTATTGC | 0.114
AAGTGAAA | 0.0681
CTTAATCA | 0.0983
ACGACATA | 0.354
AGCAGCGA | -0.171
AACGTTGC | 0.176
GCAAACCC | -0.249
GTAAGGGA | 0.107
AAACGGGT | -0.143
CCTATAGG | -0.205
CACCGCCC | -0.141
CTTGCTGA | -0.0392
CGAGTGTA | -0.0343
CGCGAGTC | -0.0174
ACACGGAT | -0.00693
CTAGGACA | -0.157
ACAATACT | 0.151
AAGCTTCA | -0.111
TGCATAAA | 0.191
AAGACTCT | -0.07
GGTTGTCA | -0.134
AGGACCTC | -0.239
AGTTCCGA | -0.067

Sequence | PBM E-score
ACTTCGTC | 0.165
GCATTTGA | 0.134
ACGGGGTA | -0.0628
CCGACTTC | -0.423
CACGAAGC | 0.0394
ACTTGCCT | 0.033
GTTTCCCA | -0.143
GATGCGAC | -0.0585
AAAATTCC | -0.152
CGCGGCAC | -0.149
ACAGTCGT | -0.0126
GAACAGCA | 0.0516
GTGGCGAA | -0.0119
GAAACGTA | 0.398
CCGAGGAC | -0.166
ATGACAAC | 0.269
AAGCGACT | -0.0317
GCTCAACA | -0.0263
ACGGGCAG | -0.167
CCACAGTA | 0.126
GAGATTAA | 0.0696
ATTTGTTA | 0.154

Source: the supplement of paper PMC3334620
